Reference: the supplement of paper PMC9046079
Counter-ions that a name gives are not always drawn. ± gives the standard deviation of the averaged measurements. The list shows a part of the results.

Experiments:
[1] = tested on: murine small intestinal organoids (ENR+CD Paneth differentiation); experiment: cellular ATP (CellTiter-Glo 3D) relative to plate median (log10 fold change); higher = more viable cells; conditions: 6 d
[2] = tested on: murine small intestinal organoids (ENR+CD Paneth differentiation); experiment: carbachol-stimulated secreted lysozyme activity relative to plate median (log10 fold change); higher = more Paneth cell lysozyme secretion; conditions: 6 d, carbachol 10 µM
[3] = tested on: murine small intestinal organoids (ENR+CD Paneth differentiation); experiment: basal (non-stimulated) secreted lysozyme activity relative to plate median (log10 fold change); higher = more Paneth cell lysozyme secretion; conditions: 6 d
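Throughout, for basal (non-stimulated) secreted lysozyme activity relative to plate median: ISC-enriched organoid precursors grown as 2.5D pseudo-monolayer on Matrigel, compound given on day 0 and day 3, plate values LOESS-normalized before median fold change, three murine donors.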
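Throughout, for cellular ATP (CellTiter-Glo 3D) relative to plate median: 2.5D pseudo-monolayer culture of ISC-enriched organoids partly embedded atop Matrigel, compound added on day 0 and again on day 3, per-plate LOESS correction before median fold change.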

Row | SMILES | cellular ATP (log10) ([1]; 0.08 µM) | cellular ATP (log10) ([1]; 0.4 µM) | cellular ATP (log10) ([1]; 2 µM) | cellular ATP (log10) ([1]; 10 µM) | carbachol-stimulated secreted lysozyme activity (log10) ([2]; 0.08 µM) | carbachol-stimulated secreted lysozyme activity (log10) ([2]; 0.4 µM) | carbachol-stimulated secreted lysozyme activity (log10) ([2]; 2 µM) | carbachol-stimulated secreted lysozyme activity (log10) ([2]; 10 µM) | basal (log10) ([3]; 0.08 µM) | basal (log10) ([3]; 0.4 µM) | basal (log10) ([3]; 2 µM) | basal (log10) ([3]; 10 µM)
1 | Cc1cc(Nc2ncc(Cl)c(Nc3ccccc3S(=O)(=O)C(C)C)n2)c(OC(C)C)cc1C1CCNCC1 | 0.135 ± 0.26 | 0.0041 ± 0.13 | -0.364 ± 0.44 | -1.29 ± 0.75 | 0.0589 ± 0.11 | -0.0824 ± 0.074 | -0.302 ± 0.17 | -0.577 ± 0.015 | 0.0614 ± 0.18 | -0.0534 ± 0.027 | -0.195 ± 0.039 | -0.338 ± 0.073
2 | CCC(CC)CC1(C(=O)Nc2ccccc2SC(=O)C(C)C)CCCCC1 | 0.112 ± 0.36 | -0.00588 ± 0.2 | 0.0788 ± 0.23 | 0.136 ± 0.046 | -0.047 ± 0.028 | 0.0951 ± 0.3 | 0.12 ± 0.28 | -0.189 ± 0.039 | 0.0545 ± 0.09 | -0.0372 ± 0.1 | -0.034 ± 0.0088 | -0.0738 ± 0.063
3 | C[C@H](N[C@@H](CCc1ccccc1)C(=O)O)C(=O)N1CCC[C@H]1C(=O)O [Enalaprilat Dihydrate] | -0.19 ± 0.18 | -0.124 ± 0.21 | -0.331 ± 0.29 | -0.979 ± 0.82 | 0.0433 ± 0.059 | 0.17 ± 0.21 | -0.112 ± 0.14 | -0.382 ± 0.1 | 0.00306 ± 0.052 | -0.00345 ± 0.06 | -0.0224 ± 0.072 | -0.157 ± 0.14
4 | CCOC(=O)C1=C(COCCN)NC(C)=C(C(=O)OC)C1c1ccccc1Cl (stereo unspecified) [Amlodipine] | -0.351 ± 0.38 | -0.363 ± 0.71 | -0.372 ± 0.38 | -0.421 ± 0.47 | 0.000466 ± 0.089 | 0.063 ± 0.033 | -0.0884 ± 0.058 | -0.171 ± 0.031 | 0.0262 ± 0.13 | 0.0242 ± 0.084 | -0.0652 ± 0.035 | -0.135 ± 0.015
5 | CNC(=O)c1ccc2cc([C@@]3(O)CCn4cncc43)ccc2c1 [TAK-700 (Orteronel)] | -0.0941 ± 0.09 | 0.00974 ± 0.16 | -0.0631 ± 0.065 | -0.0229 ± 0.38 | 0.00895 ± 0.13 | 0.195 ± 0.013 | 0.0631 ± 0.014 | 0.0479 ± 0.022 | 0.0431 ± 0.082 | 0.187 ± 0.26 | 0.114 ± 0.11 | 0.0168 ± 0.049
6 | CCc1cncnc1N1CCN(Cc2nc3ccc(C(F)(F)F)cc3[nH]2)CC1 | 0.261 ± 0.04 | 0.268 ± 0.13 | 0.302 ± 0.04 | -0.321 ± 0.22 | 0.144 ± 0.049 | 0.178 ± 0.24 | 0.239 ± 0.013 | -0.00164 ± 0.18 | 0.0751 ± 0.057 | 0.122 ± 0.14 | 0.198 ± 0.038 | 0.0341 ± 0.11
7 | Cc1c(C(=O)NN2CCCCC2)nn(-c2ccc(Cl)cc2Cl)c1-c1ccc(Cl)cc1 [Rimonabant] | 0.275 ± 0.34 | 0.179 ± 0.22 | 0.25 ± 0.32 | -0.0132 ± 0.25 | -0.0719 ± 0.14 | 0.0588 ± 0.011 | -0.132 ± 0.15 | -0.0173 ± 0.16 | 0.0461 ± 0.15 | -0.00226 ± 0.061 | -0.0434 ± 0.17 | 0.0717 ± 0.15
8 | O=c1cc(-c2cccc3c2Sc2ccccc2S3)oc(N2CCOCC2)c1 | 0.524 ± 0.15 | 0.477 ± 0.054 | 0.551 ± 0.19 | 0.541 ± 0.13 | 0.191 ± 0.069 | 0.225 ± 0.16 | 0.165 ± 0.0054 | 0.0492 ± 0.14 | 0.115 ± 0.011 | 0.103 ± 0.021 | 0.116 ± 0.04 | 0.0737 ± 0.088
9 | NC(=O)N1c2ccccc2CC(=O)c2ccccc21 [Oxcarbazepine] | -0.0213 ± 0.088 | -0.103 ± 0.071 | -0.0824 ± 0.092 | -0.15 ± 0.13 | 0.0402 ± 0.049 | 0.226 ± 0.33 | 0.0423 ± 0.03 | -0.0794 ± 0.14 | 0.00401 ± 0.0065 | -7.48e-05 ± 0.0059 | 0.0401 ± 0.066 | -0.0606 ± 0.094
10 | CC12CC3CC(C)(C1)CC(N)(C3)C2 [Memantine HCl] | 0.0833 ± 0.23 | 0.0723 ± 0.16 | -0.00737 ± 0.29 | 0.0769 ± 0.37 | 0.126 ± 0.17 | 0.0202 ± 0.014 | 0.0753 ± 0.12 | -0.00162 ± 0.07 | 0.0686 ± 0.082 | 0.00368 ± 0.012 | 0.106 ± 0.083 | -0.0472 ± 0.052
11 | Oc1ccc(Nc2nc(-c3ccc(Cl)cc3)cs2)cc1 | 0.205 ± 0.17 | 0.175 ± 0.2 | 0.183 ± 0.17 | -0.356 ± 0.28 | 0.036 ± 0.044 | 0.15 ± 0.1 | 0.0315 ± 0.055 | -0.155 ± 0.33 | 0.0709 ± 0.11 | 0.0868 ± 0.025 | 0.0412 ± 0.039 | -0.11 ± 0.22
12 | C[C@@H]1CN(CC(=O)Nc2ccc3c(c2)Cc2cccc(-c4cc(=O)cc(N5CCOCC5)o4)c2S3)C[C@H](C)O1 | 0.114 ± 0.12 | 0.0392 ± 0.16 | 0.121 ± 0.51 | -0.522 ± 0.4 | 0.326 ± 0.026 | 0.102 ± 0.21 | -0.107 ± 0.059 | -0.286 ± 0.17 | 0.0419 ± 0.079 | -0.00138 ± 0.028 | -0.0152 ± 0.089 | -0.0884 ± 0.097
13 | COc1cc(OC)c(/C=C/S(=O)(=O)Cc2ccc(OC)c(NCC(=O)O)c2)c(OC)c1 | -1.06 ± 0.013 | -0.926 ± 0.82 | -0.99 ± 1 | -0.467 ± 0.46 | -0.398 ± 0.04 | -0.204 ± 0.33 | -0.276 ± 0.24 | -0.234 ± 0.23 | -0.233 ± 0.1 | -0.0935 ± 0.15 | -0.197 ± 0.094 | -0.16 ± 0.14
14 | CC(C)NC[C@@H](C(=O)N1CCN(c2ncnc3c2[C@H](C)C[C@H]3O)CC1)c1ccc(Cl)cc1 | 0.0416 ± 0.054 | 0.118 ± 0.049 | 0.184 ± 0.13 | -0.0997 ± 0.16 | 0.0145 ± 0.04 | 0.0459 ± 0.15 | -0.111 ± 0.018 | -0.376 ± 0.0081 | 0.0358 ± 0.071 | 0.0539 ± 0.11 | -0.0775 ± 0.095 | -0.185 ± 0.11
15 | CCN(Cc1ccncc1)C(=O)C(CO)c1ccccc1 (stereo unspecified) [Tropicamide] | 0.146 ± 0.39 | -0.141 ± 0.052 | 0.25 ± 0.3 | 0.0544 ± 0.3 | -0.127 ± 0.14 | -0.0186 ± 0.095 | 0.102 ± 0.023 | 0.0435 ± 0.044 | -0.0836 ± 0.097 | 0.0681 ± 0.11 | 0.14 ± 0.22 | 0.032 ± 0.075
16 | CCCCCCCCCCCCCCCCn1cc[n+](Cc2ccccc2)c1C | -0.347 ± 0.42 | -0.508 ± 0.37 | -1.11 ± 0.3 | -1.79 ± 0.87 | -0.113 ± 0.1 | -0.284 ± 0.17 | -0.445 ± 0.04 | -0.502 ± 0.041 | -0.0345 ± 0.057 | -0.188 ± 0.07 | -0.219 ± 0.091 | -0.263 ± 0.17
17 | O=C(c1ccc(Nc2nccc(-c3cc4ccccc4s3)n2)cc1)N1CCC(N2CCCC2)CC1 [IKK-16 (IKK Inhibitor VII)] | 0.0584 ± 0.29 | -0.0509 ± 0.032 | -0.431 ± 0.33 | -0.95 ± 0.43 | 0.0335 ± 0.043 | 0.017 ± 0.042 | -0.116 ± 0.17 | -0.499 ± 0.016 | 0.104 ± 0.067 | 0.0202 ± 0.016 | -0.0813 ± 0.11 | -0.291 ± 0.079
18 | CC(C)(Cc1ccc2ccccc2c1)NC[C@@H](O)COc1cccc(Cl)c1C#N | 0.149 ± 0.27 | -0.195 ± 0.43 | -0.246 ± 0.35 | -0.118 ± 0.32 | 0.173 ± 0.13 | -0.0893 ± 0.038 | -0.159 ± 0.21 | -0.12 ± 0.14 | 0.162 ± 0.081 | -0.0478 ± 0.059 | -0.0774 ± 0.11 | -0.0686 ± 0.04
